{
  "source": "ChEMBL document CHEMBL1157539",
  "about": "“Thousands of chemical starting points for antimalarial lead identification” (Nature, 2010)",
  "note": "The full ranking holds about 13,000 compounds; the median of “IFI” is about 4, and the highest 2% start at about 17. The list shows a part of the results.",
  "data": [
    {"assay": "GSK_TCMDC: Inhibition Frequency Index (IFI). The number of non-kinase HTS assays where a compound showed > 50 % inhibition, expressed as a percentage of the number of such assays in which the compound was tested (-0 is zero)", "assay_type": "functional", "units": {"IFI": "%"}, "values": [
      {"compound": "Cc1ccc(Nc2nc(N/N=C/c3cc4c(cc3Br)OCO4)nc(Nc3ccc([N+](=O)[O-])cc3)n2)cc1C", "IFI": 2.29},
      {"compound": "O=c1cc(NCCCN(Cc2ccccc2)Cc2ccccc2)[nH]c2ccccc12", "IFI": 3.7},
      {"compound": "CC(C)NCc1cccc(-c2ccc(NC(=O)c3ccc(F)cc3)cc2)c1", "IFI": 1.96},
      {"compound": "Cc1cccc2nc(-c3cccc(-c4ccc(NC(=O)C5CC(=O)Nc6ccccc65)cc4)c3)[nH]c12", "note": "(stereo unspecified)", "IFI": 1.72},
      {"compound": "Nc1nc(N)c2c(ccc3c2ccn3Cc2ccccn2)n1", "IFI": 3.55},
      {"compound": "Cc1cc(NCc2ccccc2)nc(NCc2ccccc2)n1", "IFI": 8.78},
      {"compound": "Cc1cccc2nc(-c3ccc(-c4ccc(CN5CCC(C(N)=O)CC5)cc4)cc3)[nH]c12", "IFI": 2.91},
      {"compound": "CCNC(=O)N1CCc2ccc(Oc3nc(NCc4ccccc4OC)ncc3C)cc2CC1", "IFI": 6.1},
      {"compound": "Cc1cc(Nc2ccc3c(c2)CCC3)n2ncnc2n1", "IFI": 1.49},
      {"compound": "CS(=O)(=O)c1ccc(CNCc2cccc(-c3ccc(-c4nc5cc(C(F)(F)F)ccc5[nH]4)cc3)c2)cc1", "IFI": 6.73},
      {"compound": "COc1ccccc1/C=C/C(=O)N(C)C1CCN(CCCCCNC(=O)/C=C/c2ccc(Cl)c(Cl)c2)CC1", "IFI": 7.91},
      {"compound": "CCC(=O)c1cc(C(=O)NCCc2cccc(OC)c2)ccc1OC", "IFI": 0},
      {"compound": "Cc1cc(NC(=O)c2ccc(-c3ccccc3)cc2)no1", "IFI": 0.68},
      {"compound": "CC(C)(C)C1CC(=O)CC2C(=O)N(C3CCCCC3)C(=O)C21", "note": "(stereo unspecified)", "IFI": 0.74},
      {"compound": "COc1cccc(CNC[C@@H](O)[C@H](Cc2ccccc2)NC(=O)c2cc(C3CCCC3)cc(N3CCCCS3(=O)=O)c2)c1", "IFI": 8.96},
      {"compound": "Cc1cccc2nc(-c3cccc(-c4cccc(CNC(C)C)c4)c3)[nH]c12", "IFI": 3.96},
      {"compound": "O=C1CCCN1CCCNCc1cccc(-c2cccc(-c3nc4cc(C(F)(F)F)ccc4[nH]3)c2)c1", "IFI": 5.77},
      {"compound": "CN(C)c1ccc(-c2ccc(C(=O)NC3CCN(Cc4ccccc4F)CC3)s2)cc1", "IFI": 3.64},
      {"compound": "COc1ccc(Oc2ccccc2CNCC2CCN(CC3CCCCC3)CC2)cc1", "IFI": 7.35},
      {"compound": "Cc1[nH]c(C)c(-c2ccc(CCc3ccc(F)cc3F)cc2)c(=O)c1Br", "IFI": -0},
      {"compound": "COc1cc2nc(-c3ccccc3)nc(N3CCN(CC(=O)N4CCCC4)CC3)c2cc1OC", "IFI": 0},
      {"compound": "COc1ccc2nccc([C@@H](O)CN3CCC(NCc4cnc5c(c4)NC(=O)CS5)C(F)C3)c2c1", "note": "(stereo partly specified)", "IFI": 4.76},
      {"compound": "c1ccc2c(Nc3ccc(OCCOCCOc4ccc(Nc5c6ccccc6nc6ccccc56)cc4)cc3)c3ccccc3nc2c1", "IFI": 3.76},
      {"compound": "O=C(O)CCCN1CCCC(=C(c2ccccc2)c2ccccc2)C1", "IFI": -0},
      {"compound": "FC(F)(F)c1ccc2[nH]c(-c3ccc(-c4ccc(CNCc5cnn(-c6ccccc6)n5)cc4)cc3)nc2c1", "IFI": 12.7},
      {"compound": "COc1cc(F)c2ncc(Cl)c(C(O)CN3CCC(NC(=O)c4ccc5c(n4)NC(=O)CO5)CC3)c2c1", "note": "(stereo unspecified)", "IFI": 2.19},
      {"compound": "C#C[C@H]1O[C@@H](n2cnc3c(Nc4cc(Br)cc(C(F)(F)F)c4)ncnc32)[C@H](O)[C@@H]1O", "IFI": 1.45},
      {"compound": "COc1cc(C(F)(F)F)c2cc(CNCCCNc3nc4ccccc4[nH]3)[nH]c2c1", "IFI": 7.09},
      {"compound": "Cc1cccc(C)c1CNc1nc(N2CCOCC2)cc2c(C)c(C)[nH]c12", "IFI": 10.7},
      {"compound": "CC(C)Cn1c(Sc2ccc(C#N)c([N+](=O)[O-])c2)nnc1-c1cccc(Cl)c1", "IFI": 4.93},
      {"compound": "CCCOc1cccc(C(=O)N[C@@H](Cc2ccccc2)[C@H](O)CNCc2cccc(OC)c2)c1", "IFI": 8.54},
      {"compound": "CN1CCC(Oc2ccc(CN3CC[C@H](NC(=O)c4ccc(F)c(F)c4)C3)c3ccccc23)C1", "note": "(stereo partly specified)", "IFI": 6.99},
      {"compound": "CS(=O)(=O)CCN(CCS(C)(=O)=O)Cc1ccc(-c2ccc3ncnc(Nc4ccc(OCc5cccc(F)c5)c(Cl)c4)c3c2)o1", "IFI": 3.7},
      {"compound": "c1cc(CN2CCCCC2)cc(-c2csc(-c3nc4ccccc4[nH]3)c2)c1", "IFI": -0},
      {"compound": "CC(C)CCn1c(Sc2ccc(C#N)c([N+](=O)[O-])c2)nnc1-c1ccc(Cl)cc1", "IFI": 5.04},
      {"compound": "CN1CCN(CCCNCc2ccccc2-c2cccc(CNCc3ccc4c(c3)OCO4)c2)CC1", "IFI": 3.73},
      {"compound": "CCCCCn1c(Sc2ccc(C#N)c([N+](=O)[O-])c2)nnc1-c1ccc(OC)cc1", "IFI": 5.71},
      {"compound": "CN(C)c1ccc(-c2csc(C(=O)NCC3CCN(Cc4cccc(C(F)(F)F)c4)C3)c2)cc1", "note": "(stereo unspecified)", "IFI": 6.12},
      {"compound": "NC(=O)C1CCN(Cc2ccc(-c3ccc(-c4nc5cc(C(F)(F)F)ccc5[nH]4)s3)cc2)CC1", "IFI": 6.8},
      {"compound": "O=C(NC1CCN(Cc2ccccc2)CC1)c1ccc(-c2nc3cc(Cl)c(Cl)cc3[nH]2)s1", "IFI": 3.68},
      {"compound": "O=C(Nc1ccc2c(c1)CCN2C1CCN(Cc2ccc(C(F)(F)F)cc2F)C1)c1ccco1", "note": "(stereo unspecified)", "IFI": -0},
      {"compound": "CCC(CC)n1c(COC)cc2c3c(N)nc(N)nc3ccc21", "IFI": 2.72},
      {"compound": "CC(C)C(NC(=O)c1c(F)cccc1F)C(=O)Nc1ccc(Cc2nc3ccccc3s2)cc1", "note": "(stereo unspecified)", "IFI": 0.99},
      {"compound": "C=C(NC(=O)C1CCCCC1)C(=O)OC", "IFI": -0},
      {"compound": "Cc1cccc(CNc2nc(C)cc(N[C@@H](Cc3ccccc3)C(=O)NCc3cccc(F)c3)n2)c1", "IFI": 19.1},
      {"compound": "NCC1CCCN1Cc1cccc(-c2ccc(-c3nc4cc(C(F)(F)F)ccc4[nH]3)cc2)c1", "note": "(stereo unspecified)", "IFI": 8.82},
      {"compound": "COc1ccc2cc(CNCCCCCCNCc3ccc4cc(OC)ccc4c3)ccc2c1", "IFI": 12.3},
      {"compound": "COc1ccc2nccc(N3CCC(O)(CCNCc4ccc5c(n4)NC(=O)CO5)CC3)c2n1", "IFI": 0.74},
      {"compound": "O=C(Nc1cccc(C(F)(F)F)c1)Nc1ccc2nonc2c1", "IFI": 22.5},
      {"compound": "c1ccc(COc2ccc(Nc3ncnc4cnc(-c5ccc(CN6CCCCC6)o5)cc34)cc2)cc1", "IFI": 1.47},
      {"compound": "CCCCOc1ccc(-n2c(Nc3ccccc3)nc3cc(S(N)(=O)=O)ccc32)cc1", "IFI": 3.1},
      {"compound": "CN1CCC(NCc2cccc(-c3ccc(S(=O)(=O)NCCN4CCCC4)s3)c2)CC1", "IFI": -0},
      {"compound": "COc1ccc2c(N/N=C/c3cccc([N+](=O)[O-])c3)cc(C)nc2c1", "IFI": 1.5},
      {"compound": "CC(=O)Nc1ccc(OCCN(Cc2ccccc2C(F)(F)F)c2ccc(C#N)c(C(F)(F)F)c2)cc1", "IFI": 7.94},
      {"compound": "CC(C)NCc1cccc(-c2ccc(NC(=O)c3cccc(C#N)c3)cc2)c1", "IFI": 1.98},
      {"compound": "CC(C)CCNC(=O)c1cnc2c(O)cccc2c1Nc1cccc(NC(=O)c2ccc(F)cc2)c1", "IFI": 7.81},
      {"compound": "CCCC(C)c1ccc(N2C(N)=NC(N)=NC2(C)C)cc1", "note": "(stereo unspecified)", "IFI": 4.38},
      {"compound": "COc1ccccc1N1CCN(C(C(=O)NCc2ccc3c(c2)OCO3)c2ccc(C)cc2)CC1", "note": "(stereo unspecified)", "IFI": 1.38},
      {"compound": "Cc1ccc(-n2c(C)nc3c(Nc4ccc(-c5ccncc5)cc4)ncnc32)c(C)c1", "IFI": 7.97},
      {"compound": "Cc1cc(O)c(CNC2CCCCC2)cc1C", "IFI": -0},
      {"compound": "O=C(Nc1ccccc1)N(Cc1ccccc1-c1cccc(CNC2CCCC2)c1)C1CCN(Cc2ccccc2)CC1", "IFI": 7.86},
      {"compound": "CC(=O)Nc1ccc(NC(=O)c2cc(-c3ccc(C)cc3O)n[nH]2)cc1", "IFI": 0},
      {"compound": "O=C(Nc1cccc(-c2ccc(-c3nc4cc(F)ccc4[nH]3)cc2)c1)Nc1ccc(Cl)c(Cl)c1", "IFI": 4.95},
      {"compound": "Cc1cc(N[C@@H](Cc2ccccc2)C(=O)NCCOc2ccccc2)nc(Nc2ccccc2)n1", "IFI": 4.65},
      {"compound": "C(=NN=c1cc(-c2ccccc2)[nH]c2ccccc12)c1cccnc1", "IFI": 4.9},
      {"compound": "c1ccc2c(CNc3ccnc(NCc4cccc5ccccc45)n3)cccc2c1", "IFI": 16.2},
      {"compound": "COc1cc(F)c2ncc(Cl)c(C(O)CN3CCC(NC(=O)c4ccc5c(c4)NC(=O)CS5)CC3)c2c1", "note": "(stereo unspecified)", "IFI": 2.19},
      {"compound": "O=C(c1cccc(-c2ccc(-c3nc4cc(F)ccc4[nH]3)s2)c1)N1CCCCC1CN1CCC(O)C1", "note": "(stereo unspecified)", "IFI": 1.75},
      {"compound": "O=C(NCCc1cccc(F)c1)c1ccc(N2CCN(c3ccncc3)CC2)cn1", "IFI": 10.3},
      {"compound": "Cc1cc(NC(=O)Nc2ccc(Cl)cc2F)c2ccccc2n1", "IFI": 7.32},
      {"compound": "Cc1cc(NCCC(=O)NCCOc2ccccc2)nc(NCCOc2ccccc2)n1", "IFI": 4.88},
      {"compound": "O=C(Nc1cc(Cl)ccc1-n1cncn1)C1(c2ccccc2)CC1", "IFI": 3.88},
      {"compound": "CN1CCN(c2cc3c(cc2Cl)CCN3C(=O)Cc2ccc(Cl)c(NC(=O)Nc3cccc(C#N)c3)c2)CC1", "IFI": 2.88},
      {"compound": "Cc1cccc(C(=O)NC(NC(=S)Nc2cc(Cl)ccc2Cl)C(Cl)(Cl)Cl)c1", "note": "(stereo unspecified)", "IFI": 5},
      {"compound": "COCCn1c(C)nc2ccccc2c1=O", "IFI": -0},
      {"compound": "CCOC(=O)C(C#N)NC(=O)C=Cc1ccccc1", "note": "(stereo unspecified)", "IFI": 3.52},
      {"compound": "CC1(C)NC(N)=NC(=N)N1OCCCO", "IFI": 2.19},
      {"compound": "CCN(CC)CCN(Cc1ccc(-c2ccc(C(F)(F)F)cc2)cc1)C(=O)Cn1c(CCc2cc(F)c(F)cc2F)nc(=O)c2ccccc21", "IFI": 8.89},
      {"compound": "O=C(/C=N/O)Nc1ccccc1[N+](=O)[O-]", "IFI": 0},
      {"compound": "Cc1cc(=O)[nH]c(-n2nc(C)cc2NC(=O)CC(c2ccccc2)c2ccccc2)n1", "IFI": 10.4},
      {"compound": "O=C(NCc1ccc(F)cc1)Nc1cccc(-c2ccc(-c3nc4ccccc4[nH]3)cc2)c1", "IFI": 5.08},
      {"compound": "CN(C)CCN(C)Cc1cccc(-c2cccc(NC(=O)c3cccc(C#N)c3)c2)c1", "IFI": 1.33},
      {"compound": "Cc1nccc2c(NC(=O)N[C@@H]3CCN(c4ncc(C(F)(F)F)cc4Br)C3)cccc12", "IFI": 5.11},
      {"compound": "Cc1cc(N[C@@H](CC(C)C)C(=O)NCCOc2ccccc2)nc(NCC2CCCCC2)n1", "IFI": 13.9},
      {"compound": "O=C(N[C@@H](CC1CCCCC1)C(=O)NCCN1CCCCC1)c1ccc(O)c(-c2ccc(Cl)c(Cl)c2)c1", "IFI": 8.7},
      {"compound": "CCN(CCCN1CCCCC1)c1cc(C)nc(Nc2ccc(C(C)C)cc2)n1", "IFI": 10.3},
      {"compound": "Cc1ccccc1C1CCN(C2CCC(NC(=O)/C=C/c3cc(F)ccc3C(F)(F)F)CC2)CC1", "note": "(stereo unspecified)", "IFI": 9.68},
      {"compound": "COCCN1CCC(N(CC2(O)CCN(c3ccc(C(F)(F)F)cc3)CC2)C(=O)Cn2c(SCc3cccc(F)c3F)cc(=O)c3ccccc32)CC1", "IFI": 9.77},
      {"compound": "Cc1cc(Br)cnc1CCCCNC1=NC(=O)CN1C", "IFI": -0},
      {"compound": "Fc1cc(Cl)ccc1Nc1ccnc(Nc2ccc3cn[nH]c3c2)n1", "IFI": 7.97},
      {"compound": "CN1CCN(Cc2cc3cc(NC(=O)/C=C/c4ccc(Cl)cc4)ccc3s2)CC1", "IFI": 9.72}
    ]}
  ]
}
